Measured values: patent US7604949B2, “Methods and compositions that affect melanogenesis” (New York University, priority 1999, dated 2009)
Counter-ions that a name gives are not always drawn. Like-named read-outs stand apart in the source and are kept apart here.

Tests used:
melan-a melanocytes [1] = conditions: melan-a cells, 48 hours, low tyrosine, vs untreated
melan-a melanocytes [2] = assay: Melanin production (absorbance 490 nm per protein) in melan-a melanocytes; format: cell-based, mouse
Experimental: Immediately before using the medium, tetradecanoyl phorbol acetate (TPA) was added at 200 nM. Cells were seeded in T-25 flasks with 4×10^4 cells/ml×4.5 ml/flask (10-20% confluent) and were grown at 37° C. with 5% CO2. Twenty-four hours later, a compound to be tested (diluted in 0.5 ml media) was added to the media. Forty-eight hours after the addition of drug, both the media and drug were changed. Cells were harvested after an additional 48 or 72 hours (100% confluent). In harvesting the cells, the reagents and cells were kept at 4° C. Briefly, the media was removed from the cells, and one milliliter of media was reserved if needed for the tyrosinase assay. The cells were then rinsed with approximately 500 μl cold 1× phosphate buffered saline (PBS) until the PBS rinse was clear. Cold extraction buffer (50 mM Tris, (pH 7.5), 2 mM EDTA (pH 7.8), 150 mM NACE, and 1% Triton x-100 (Sigma, St. Louis, Mo.), (500 μl) was added, and the sample was allowed to incubate on ice for a few minutes or until cells began to peel off the bottom of the flask. After tapping the flask to encourage the cells to fall off, the 500 μl of the extraction buffer/cells were removed and placed in a microfuge tube. After spinning the sample for 5 minutes at 14,000×g at 4° C., the supernatant was removed and saved in a microfuge tube for the protein assay (and tyrosinase assay, if necessary). The cell pellets were either stored at 4° C. overnight or at −20° C. for longer periods before assaying for melanin. […] The sample was vortexed and allowed to stand for approximately 10 minutes or until precipitated protein was visible in the solvent. If necessary, pellets were gently crushed with a microfuge tube pestle. Care was taken not to break the pellet(s) into many small pieces which would have made removing the solvent (and leaving melanin behind) difficult. Using a glass pipette, the solvent/protein was removed, being careful not to remove melanin. The extraction steps were repeated, and the pellets allowed to dry. Next, 250 μl of 2 N NaOH in 20% dimethylsulfoxide (DMSO) was added to each microfuge tube. The samples were heated at 66-70° C. until the melanin was completely dissolved. For each sample tested, 200 μl of the NaOH/melanin solution was transferred to a 96-well plate. 2 N NaOH in 20% DMSO was used as a blank, and the samples were read at a wavelength of 490 nm. The data were reported as absorbance of melanin per protein calculated for the total sample.

Compound	levels of tyrosinase activity secreted to the incubation medium (melan-a melanocytes [1]; 10 micromolar compound)	decrease in pigmentation (melan-a melanocytes [2]; 20 μM) [%]	other results
CN1[C@@H]2CC[C@H]1C[C@@H](OC(c1ccccc1)c1ccccc1)C2 [benztropine]	did not alter	–	–
CCN(CC)CCO[C@H]1CC[C@@]2(C)C(=CC[C@@H]3[C@@H]2CC[C@]2(C)C(=O)CC[C@@H]32)C1 [U18666A, HCl]	–	–	decrease in pigmentation as compared to control (melan-a melanocytes [2]; 2.5 μM): 60%; reduction of the effect of IBMX alone on pigment production (melan-a melanocytes [2]; 2.5 μM U18666A combined with 10 μM IBMX): 75%
CC(=O)[C@H]1CC[C@H]2[C@@H]3CCC4=CC(=O)CC[C@]4(C)[C@H]3CC[C@]12C [progesterone]	–	52	decrease in pigmentation (melan-a melanocytes [2]; 10 μM): 45%
CN(C)CCCN1c2ccccc2CCc2ccccc21 [imipramine, 10,11-dihydro-n,n-dimethyl-5H-dibenz[b,f]azepine-5-propanamine]	significantly increased	33	–
O=C(O)/C=C\C(=O)O.O=[N+]([O-])c1ccc2nc(N3CCNCC3)ccc2c1 [nitroquipazine, 6-nitro-2-(1-piperazinyl)-quinoline maleate]	–	–	levels of tyrosinase activity secreted to the incubation medium (melan-a melanocytes [1]; 30 micromolar compound): significantly increased
